Experimental data: the supplement of paper PMC8728848
Some of the results follow.

Columns and labels:
Assay in all cases: glycan array binding signal (z-score within array); higher = stronger binding
Conditions in all cases: glycan notation: IUPAC condensed, linker removed
[1] = target: Gal3S6S(b1-4)GlcNAc6S
Summary of the method: (§1)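 The binding signal is a Z-score computed within each array. Data were drawn from 3228 arrays in the Consortium for Functional Glycomics database, restricted to those with a known protein sequence. Scores were averaged over arrays of the same protein sequence at different concentrations or buffers, and over linkers, and negative values can be taken as non-binding.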

[2] = target: Gal4S(b1-4)GlcNAc
Summary of the method: as §1

[3] = target: Gal4S6S(b1-4)GlcNAc
Summary of the method: as §1

[4] = target: Gal6S(b1-4)Glc
Summary of the method: as §1

[5] = target: Gal6S(b1-4)Glc6S
Summary of the method: as §1

[6] = target: Gal6S(b1-4)GlcNAc
Summary of the method: as §1

[7] = target: Gal6S(b1-4)GlcNAc6S
Summary of the method: as §1

[8] = target: GalNAc(a1-3)Gal
Summary of the method: as §1

[9] = target: GalNAc(a1-3)GalNAc
Summary of the method: as §1

[10] = target: GalNAc(b1-3)Gal
Summary of the method: as §1

[11] = target: GalNAc(b1-3)Gal(a1-4)Gal(b1-4)GlcNAc
Summary of the method: as §1

[12] = target: GalNAc(b1-3)Gal(a1-4)Gal(b1-4)GlcNAc(b1-3)Gal(b1-4)Glc
Summary of the method: as §1

[13] = target: GalNAc(b1-3)GalNAc
Summary of the method: as §1

[14] = target: GalNAc(b1-4)GlcNAc
Summary of the method: as §1

[15] = target: GalNAc(b1-4)GlcNAc(b1-2)Man(a1-3)[GalNAc(b1-4)GlcNAc(b1-2)Man(a1-6)]Man(b1-4)GlcNAc(b1-4)GlcNAc
Summary of the method: as §1

[16] = target: Glc(a1-4)Glc
Summary of the method: as §1

[17] = target: Glc(a1-6)Glc(a1-6)Glc
Summary of the method: as §1

[18] = target: Glc(b1-4)Glc
Summary of the method: as §1

[19] = target: Glc(b1-6)Glc
Summary of the method: as §1

[20] = target: GlcA(b1-3)Gal
Summary of the method: as §1

[21] = target: GlcA(b1-3)GlcNAc
Summary of the method: as §1

[22] = target: GlcA(b1-6)Gal
Summary of the method: as §1

[23] = target: GlcNAc(a1-3)Gal(b1-4)GlcNAc
Summary of the method: as §1

[24] = target: GlcNAc(a1-4)Gal(b1-3)GlcNAc
Summary of the method: as §1

[25] = target: GlcNAc(a1-4)Gal(b1-4)GalNAc
Summary of the method: as §1

[26] = target: GlcNAc(a1-4)Gal(b1-4)GlcNAc
Summary of the method: as §1

[27] = target: GlcNAc(a1-4)Gal(b1-4)GlcNAc(b1-3)Gal(b1-4)Glc
Summary of the method: as §1

[28] = target: GlcNAc(a1-4)Gal(b1-4)GlcNAc(b1-3)Gal(b1-4)GlcNAc
Summary of the method: as §1

[29] = target: GlcNAc(a1-4)Gal(b1-4)GlcNAc(b1-3)Gal(b1-4)GlcNAc(b1-3)Gal(b1-4)GlcNAc
Summary of the method: as §1

[30] = target: GlcNAc(a1-4)Gal(b1-4)GlcNAc(b1-3)Gal(b1-4)[Fuc(a1-3)]GlcNAc(b1-3)Gal(b1-4)[Fuc(a1-3)]GlcNAc
Summary of the method: as §1

[31] = target: GlcNAc(a1-6)Gal(b1-4)GlcNAc
Summary of the method: as §1

[32] = target: GlcNAc(b1-2)Gal(b1-3)GalNAc
Summary of the method: as §1

[33] = target: GlcNAc(b1-2)Man(a1-3)[GlcNAc(b1-2)Man(a1-6)]Man(b1-4)GlcNAc(b1-4)GlcNAc
Summary of the method: as §1

[34] = target: GlcNAc(b1-2)Man(a1-3)[GlcNAc(b1-2)Man(a1-6)]Man(b1-4)GlcNAc(b1-4)[Fuc(a1-6)]GlcNAc
Summary of the method: as §1

[35] = target: GlcNAc(b1-3)Gal
Summary of the method: as §1

[36] = target: GlcNAc(b1-3)Gal(b1-3)GalNAc
Summary of the method: as §1

[37] = target: GlcNAc(b1-3)Gal(b1-4)Glc
Summary of the method: as §1

[38] = target: GlcNAc(b1-3)Gal(b1-4)GlcNAc
Summary of the method: as §1

[39] = target: GlcNAc(b1-3)Gal(b1-4)GlcNAc(b1-3)Gal(b1-4)GlcNAc
Summary of the method: as §1

[40] = target: GlcNAc(b1-3)GalNAc
Summary of the method: as §1

[41] = target: GlcNAc(b1-3)Man
Summary of the method: as §1

[42] = target: GlcNAc(b1-3)[GlcNAc(b1-4)][GlcNAc(b1-6)]GlcNAc
Summary of the method: as §1

[43] = target: GlcNAc(b1-3)[GlcNAc(b1-6)]Gal(b1-4)GlcNAc
Summary of the method: as §1

[44] = target: GlcNAc(b1-3)[GlcNAc(b1-6)]GalNAc
Summary of the method: as §1

[45] = target: GlcNAc(b1-4)Gal(b1-4)GlcNAc
Summary of the method: as §1

[46] = target: GlcNAc(b1-4)GlcNAc
Summary of the method: as §1

[47] = target: GlcNAc(b1-4)GlcNAc(b1-4)GlcNAc
Summary of the method: as §1

[48] = target: GlcNAc(b1-4)GlcNAc(b1-4)GlcNAc(b1-4)GlcNAc(b1-4)GlcNAc
Summary of the method: as §1

[49] = target: GlcNAc(b1-4)GlcNAc(b1-4)GlcNAc(b1-4)GlcNAc(b1-4)GlcNAc(b1-4)GlcNAc
Summary of the method: as §1

[50] = target: GlcNAc(b1-4)[GlcNAc(b1-6)]GalNAc
Summary of the method: as §1

[51] = target: GlcNAc(b1-6)Gal(b1-4)GlcNAc
Summary of the method: as §1

[52] = target: GlcNAc(b1-6)GalNAc
Summary of the method: as §1

[53] = target: GlcNAc3Prop(b1-4)GlcNAc
Summary of the method: as §1

[54] = target: GlcNAc6S(b1-3)Gal(b1-4)GlcNAc
Summary of the method: as §1

[55] = target: Kdn(a2-3)Gal(b1-3)GalNAc
Summary of the method: as §1

[56] = target: Kdn(a2-3)Gal(b1-3)GlcNAc
Summary of the method: as §1

[57] = target: Kdn(a2-3)Gal(b1-4)Glc
Summary of the method: as §1

[58] = target: Kdn(a2-3)Gal(b1-4)GlcNAc
Summary of the method: as §1

[59] = target: Kdn(a2-3)Gal(b1-4)[Fuc(a1-3)]GlcNAc
Summary of the method: as §1

[60] = target: Kdn(a2-6)Gal(b1-4)GlcNAc
Summary of the method: as §1

[61] = target: Man(a1-2)Man(a1-2)Man(a1-3)Man
Summary of the method: as §1

[62] = target: Man(a1-2)Man(a1-2)Man(a1-6)[Man(a1-3)]Man
Summary of the method: as §1

[63] = target: Man(a1-2)Man(a1-3)Man
Summary of the method: as §1

[64] = target: Man(a1-2)Man(a1-3)[Man(a1-2)Man(a1-6)]Man
Summary of the method: as §1

[65] = target: Man(a1-2)Man(a1-3)[Man(a1-2)Man(a1-6)]Man(a1-6)[Man(a1-2)Man(a1-2)Man(a1-3)]Man
Summary of the method: as §1

[66] = target: Man(a1-2)Man(a1-3)[Man(a1-2)Man(a1-6)]Man(a1-6)[Man(a1-2)Man(a1-2)Man(a1-3)]Man(b1-4)GlcNAc(b1-4)GlcNAc
Summary of the method: as §1

[67] = target: Man(a1-2)Man(a1-3)[Man(a1-6)]Man(a1-6)[Man(a1-2)Man(a1-3)]Man(b1-4)GlcNAc(b1-4)GlcNAc
Summary of the method: as §1

[68] = target: Man(a1-2)Man(a1-6)[Man(a1-3)]Man(a1-6)[Man(a1-2)Man(a1-2)Man(a1-3)]Man
Summary of the method: as §1

[69] = target: Man(a1-2)Man(a1-6)[Man(a1-3)]Man(a1-6)[Man(a1-2)Man(a1-2)Man(a1-3)]Man(b1-4)GlcNAc(b1-4)GlcNAc
Summary of the method: as §1

[70] = target: Man(a1-3)[Man(a1-6)]Man
Summary of the method: as §1

[71] = target: Man(a1-3)[Man(a1-6)]Man(a1-6)[Man(a1-2)Man(a1-3)]Man(b1-4)GlcNAc(b1-4)GlcNAc
Summary of the method: as §1

[72] = target: Man(a1-3)[Man(a1-6)]Man(a1-6)[Man(a1-3)]Man
Summary of the method: as §1

[73] = target: Man(a1-3)[Man(a1-6)]Man(a1-6)[Man(a1-3)]Man(b1-4)GlcNAc(b1-4)GlcNAc
Summary of the method: as §1

[74] = target: Man(a1-3)[Man(a1-6)]Man(b1-4)GlcNAc(b1-4)GlcNAc
Summary of the method: as §1

[75] = target: Man(a1-6)Man
Summary of the method: as §1

B1: Ficolin B (Rattus norvegicus), P57756 (protein)
chain: MVLGSAALFVLSLCVTELTLHAADTCPEVKVLDLEGSNKLTILQGCPGLPGALGPKGEAGAKGDRGESGLPGHPGKAGPTGPKGDRGEKGVRGEKGDTGPSQSCATGPRTCKELLTRGYFLTGWYTIYLPDCRPLTVLCDMDTDGGGWTVFQRRIDGTVDFFRDWTSYKQGFGSQLGEFWLGNDNIHALTTQGTNELRVDLADFDGNHDFAKYSSFQIQGEAEKYKLILGNFLGGGAGDSLTSQNNMLFSTKDQDNDQGSSNCAVRYHGAWWYSDCHTSNLNGLYLRGLHKSYANGVNWKSWKGYNYSYKVSEMKVRLI
glycan array binding signal (z-score) [1]: -0.225 | glycan array binding signal (z-score) [2]: -0.21 | glycan array binding signal (z-score) [3]: -0.063 | glycan array binding signal (z-score) [4]: -0.185 | glycan array binding signal (z-score) [5]: -0.115 | glycan array binding signal (z-score) [6]: -0.183 | glycan array binding signal (z-score) [7]: -0.185 | glycan array binding signal (z-score) [8]: -0.008 | glycan array binding signal (z-score) [9]: -0.197 | glycan array binding signal (z-score) [10]: -0.192 | glycan array binding signal (z-score) [11]: -0.2 | glycan array binding signal (z-score) [12]: -0.236 | glycan array binding signal (z-score) [13]: -0.048 | glycan array binding signal (z-score) [14]: -0.19 | glycan array binding signal (z-score) [15]: -0.131 | glycan array binding signal (z-score) [16]: -0.148 | glycan array binding signal (z-score) [17]: -0.204 | glycan array binding signal (z-score) [18]: -0.206 | glycan array binding signal (z-score) [19]: -0.235 | glycan array binding signal (z-score) [20]: -0.029 | glycan array binding signal (z-score) [21]: -0.174 | glycan array binding signal (z-score) [22]: -0.208 | glycan array binding signal (z-score) [23]: -0.127 | glycan array binding signal (z-score) [24]: -0.094 | glycan array binding signal (z-score) [25]: -0.07 | glycan array binding signal (z-score) [26]: -0.141 | glycan array binding signal (z-score) [27]: -0.187 | glycan array binding signal (z-score) [28]: -0.137 | glycan array binding signal (z-score) [29]: -0.23 | glycan array binding signal (z-score) [30]: 0.374 | glycan array binding signal (z-score) [31]: 0.051 | glycan array binding signal (z-score) [32]: -0.163 | glycan array binding signal (z-score) [33]: -0.195 | glycan array binding signal (z-score) [34]: -0.195 | glycan array binding signal (z-score) [35]: -0.258 | glycan array binding signal (z-score) [36]: -0.206 | glycan array binding signal (z-score) [37]: 0.353 | glycan array binding signal (z-score) [38]: 0.266 | glycan array binding signal (z-score) [39]: 0.304 | glycan array binding signal (z-score) [40]: -0.144 | glycan array binding signal (z-score) [41]: -0.186 | glycan array binding signal (z-score) [42]: -0.024 | glycan array binding signal (z-score) [43]: 0.454 | glycan array binding signal (z-score) [44]: -0.126 | glycan array binding signal (z-score) [45]: 0.069 | glycan array binding signal (z-score) [46]: -0.154 | glycan array binding signal (z-score) [47]: -0.151 | glycan array binding signal (z-score) [48]: -0.205 | glycan array binding signal (z-score) [49]: 0.166 | glycan array binding signal (z-score) [50]: -0.148 | glycan array binding signal (z-score) [51]: -0.217 | glycan array binding signal (z-score) [52]: -0.086 | glycan array binding signal (z-score) [53]: -0.193 | glycan array binding signal (z-score) [54]: 0.311 | glycan array binding signal (z-score) [55]: -0.06 | glycan array binding signal (z-score) [56]: 0.074 | glycan array binding signal (z-score) [57]: -0.226 | glycan array binding signal (z-score) [58]: -0.219 | glycan array binding signal (z-score) [59]: -0.138 | glycan array binding signal (z-score) [60]: -0.209 | glycan array binding signal (z-score) [61]: -0.074 | glycan array binding signal (z-score) [62]: -0.244 | glycan array binding signal (z-score) [63]: -0.059 | glycan array binding signal (z-score) [64]: -0.21 | glycan array binding signal (z-score) [65]: -0.232 | glycan array binding signal (z-score) [66]: -0.224 | glycan array binding signal (z-score) [67]: -0.169 | glycan array binding signal (z-score) [68]: -0.212 | glycan array binding signal (z-score) [69]: -0.18 | glycan array binding signal (z-score) [70]: -0.166 | glycan array binding signal (z-score) [71]: -0.182 | glycan array binding signal (z-score) [72]: -0.217 | glycan array binding signal (z-score) [73]: -0.204 | glycan array binding signal (z-score) [74]: -0.19 | glycan array binding signal (z-score) [75]: -0.229
